From the supplement of paper PMC9174493
Structures can show the parent of a compound that is named as a salt. The list shows a part of the results. Single values of this set are uncertain. Values with irradiation are relative to irradiated vehicle.

Columns and labels:
A549-Dual [1] = assay: NF-kB reporter (SEAP) activity, viability-corrected, relative to vehicle (fold change vs vehicle); higher = more activation of STING-IRF / NF-kB immune response reporter; conditions: 10 µM
A549-Dual [2] = assay: ISRE reporter (Lucia luciferase) activity, viability-corrected, relative to vehicle (fold change vs vehicle); higher = more activation of STING-IRF / NF-kB immune response reporter; conditions: 10 µM
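For NF-kB reporter (SEAP) activity, viability-corrected, relative to vehicle in this document: viability correction based on the alamar blue assay, with concentrations leaving 10% survival or less dropped.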

Structure (SMILES) | NF-kB reporter (A549-Dual [1]; irradiation: 8 Gy/4 fr) | NF-kB reporter (A549-Dual [1]; irradiation: none) | ISRE reporter (A549-Dual [2]; irradiation: 8 Gy/4 fr) | ISRE reporter (A549-Dual [2]; irradiation: none)
CNCCC(Oc1cccc2ccccc12)c1cccs1 (configuration not stated) [Duloxetine] | 0.879 | 0.761 | 1.07 | 1.18
COC(=O)NC(C(=O)NC(Cc1ccccc1)C(O)CN(Cc1ccc(-c2ccccn2)cc1)NC(=O)C(NC(=O)OC)C(C)(C)C)C(C)(C)C.O=S(=O)(O)O (configuration not stated) [Atazanavir Sulfate] | 0.688 | 0.88 | 0.645 | 0.799
O=c1[nH]c(=O)n(C2CC(O)C(CO)O2)cc1I (configuration not stated) [Idoxuridine] | 0.55 | 1.01 | 0.445 | 0.966
CCCCC(O)c1ccccc1 (configuration not stated) [Fenipentol] | 0.695 | 0.512 | 0.648 | 0.44
C[N+](C)(C)CCOP(=O)([O-])OP(=O)([O-])OCC1OC(n2ccc(N)nc2=O)C(O)C1O.[Na+] (configuration not stated) [Citicoline sodium] | 0.641 | 1.08 | 0.484 | 0.736
Cc1c(OCC(F)(F)F)ccnc1CS(=O)c1nc2ccccc2[nH]1 (configuration not stated) [Lansoprazole] | 0.517 | 0.876 | 0.292 | 0.642
COC(=O)C1=C(C)NC(C)=C(C(=O)OC(C)C)C1c1cccc2nonc12 (configuration not stated) [Isradipine] | 0.514 | 0.68 | 0.522 | 0.627
CC(C)n1c(/C=C/C(O)CC(O)CC(=O)[O-])c(-c2ccc(F)cc2)c2ccccc21.[Na+] (configuration not stated) [Fluvastatin Sodium] | 1.71 | 2.39 | 0.352 | 1.9
Cc1ccc(NC(=O)C2(c3ccc4c(c3)OC(F)(F)O4)CC2)nc1-c1cccc(C(=O)O)c1 [VX-809 (Lumacaftor)] | 0.719 | 1.18 | 0.515 | 0.785
COc1nc2ccc(Br)cc2cc1C(c1ccccc1)C(O)(CCN(C)C)c1cccc2ccccc12.O=C(O)/C=C/C(=O)O (configuration not stated) [Bedaquiline fumarate] | 0.807 | 1.06 | 1.12 | 2.23
CN(C)CC/C=C1/c2ccccc2COc2ccc(CC(=O)O)cc21.Cl [Olopatadine HCl] | 0.956 | 0.977 | 0.951 | 0.969
N=C(N)NS(=O)(=O)c1ccc(N)cc1 [Sulfaguanidine] | 0.849 | 1.09 | 0.8 | 0.779
Brc1c(NC2=NCCN2)ccc2nccnc12.O=C(O)C(O)C(O)C(=O)O [Brimonidine Tartrate] | 1.19 | 0.779 | 1.09 | 0.771
CCCC(C(=O)OCCN(CC)CC)(c1ccccc1)c1ccccc1.Cl [Proadifen HCl] | 0.726 | 1.19 | 0.705 | 0.746
NS(=O)(=O)c1cc2c(cc1Cl)N=CNS2(=O)=O [Chlorothiazide] | 0.972 | 0.872 | 0.847 | 0.732
CNC(=O)CN(CCN(CCN(CC(=O)[O-])CC(=O)NC)CC(=O)[O-])CC(=O)[O-].O.[Gd+3] [Gadodiamide Hydrate] | 0.971 | 0.684 | 0.945 | 0.695
CCCCC(CC)COC(=O)CC(C(=O)OCC(CC)CCCC)S(=O)(=O)[O-].[Na+] (configuration not stated) [Docusate Sodium] | 0.861 | 0.965 | 0.874 | 0.87
CC(C)(C)C(=O)OCOC(=O)C1N2C(=O)C(N=CN3CCCCCC3)C2SC1(C)C.Cl (configuration not stated) [Pivmecillinam hydrochloride] | 0.93 | 0.974 | 0.838 | 0.884
OCC1OC(c2ccc(Cl)c(Cc3ccc(OC4CCOC4)cc3)c2)C(O)C(O)C1O (configuration not stated) | 0.706 | 0.751 | 0.624 | 0.749
CS(=O)(=O)O.O=C(OC1CC2CC3CC(C1)N2CC3=O)c1c[nH]c2ccccc12 (configuration not stated) [Dolasetron Mesylate] | 0.738 | 1.54 | 0.849 | 0.917
Oc1c(I)cc(I)c2cccnc12 [Diiodohydroxyquinoline] | 0.785 | 0.99 | 0.796 | 0.789
O=C1OCCN1/N=C/c1ccc([N+](=O)[O-])o1 [Furazolidone] | 0.962 | 1.03 | 0.916 | 0.861
CC(C)(C)NCC(O)COc1cccc2c1CC(O)C(O)C2 (configuration not stated) [Nadolol] | 0.716 | 0.804 | 0.802 | 0.683
CC(C)CN(CC(OP(=O)([O-])[O-])C(Cc1ccccc1)NC(=O)OC1CCOC1)S(=O)(=O)c1ccc(N)cc1.[Ca+2] (configuration not stated) [Fosamprenavir calcium salt] | 0.805 | 1.18 | 0.542 | 0.882
CNc1ncc(-c2ccc3c(=O)c(C(=O)O)cn(C4CC4)c3c2C)cc1C [Ozenoxacin] | 1.09 | 1.39 | 0.881 | 0.982
CS(=O)(=O)c1ccc(C(O)C(CO)NC(=O)C(Cl)Cl)cc1 (configuration not stated) [Thiamphenicol] | 0.538 | 1.17 | 0.331 | 0.453
Cc1onc(-c2ccccc2Cl)c1C(=O)NC1C(=O)N2C1SC(C)(C)C2C(=O)[O-].O.[Na+] (configuration not stated) [Cloxacillin Sodium] | 0.863 | 1.35 | 0.835 | 0.708

Structure (SMILES) | NF-kB reporter (A549-Dual [1]; irradiation: 8 Gy/4 fr) | NF-kB reporter (A549-Dual [1]; irradiation: none) | ISRE reporter (A549-Dual [2]; irradiation: 8 Gy/4 fr) | ISRE reporter (A549-Dual [2]; irradiation: none)
O=C1Nc2ccc(Cl)cc2C(C#CC2CC2)(C(F)(F)F)O1 (configuration not stated) [Efavirenz] | 0.62 | 1.18 | 0.601 | 0.92
NS(=O)(=O)c1ccc(C(=O)O)cc1 [Carzenide] | 0.844 | 0.685 | 0.585 | 0.412
CC(NCc1ccc(OCc2cccc(F)c2)cc1)C(N)=O (configuration not stated) [Safinamide] | 0.849 | 0.805 | 0.914 | 0.753
Cl.N=C(N)NC(=O)Cc1c(Cl)cccc1Cl [Guanfacine Hydrochloride] | 0.798 | 1.09 | 0.584 | 0.634
CCCCCCCC/C=C\CCCCCCCC(=O)OCC [Ethyl Oleate] | 0.673 | 0.575 | 0.687 | 0.431
CCCC(=O)OC1(C(=O)COC(C)=O)CCC2C3CC(F)C4=CC(=O)C=CC4(C)C3(F)C(O)CC21C (configuration not stated) [Difluprednate] | 0.355 | 0.742 | 0.069 | 0.221
Cc1ccc(C(C)C)cc1O [Carvacrol] | 0.756 | 0.687 | 0.684 | 0.566
COc1ccccc1OCC(O)CN1CCN(CC(=O)Nc2c(C)cccc2C)CC1.Cl.Cl (configuration not stated) [Ranolazine 2HCl] | 0.894 | 1.05 | 0.973 | 0.802
CCOC(=O)C(CCc1ccccc1)NC(C)C(=O)N(CC(=O)O)C1Cc2ccccc2C1.Cl (configuration not stated) [Delapril Hydrochloride] | 0.878 | 0.59 | 0.81 | 0.361
CN1C2CCC1CC(OC(c1ccccc1)c1ccccc1)C2.CS(=O)(=O)O (configuration not stated) [Benztropine mesylate] | 0.486 | 1.06 | 0.556 | 1.48
O=C(Cn1cnnn1)NC1C(=O)N2C(C(=O)[O-])=C(CSc3nncs3)CSC12.[Na+] (configuration not stated) [Ceftezole sodium] | 0.895 | 0.916 | 0.789 | 0.712
CC(C)(N)CO.Cn1c(=O)c2[nH]c(Br)nc2n(C)c1=O [Pamabrom] | 0.623 | 0.693 | 0.717 | 0.709
CCOC(CN1CCN(CC(C)C(=O)c2ccccc2)CC1)c1ccccc1.Cl.Cl (configuration not stated) [Eprazinone 2HCl] | 0.9 | 1.41 | 0.896 | 0.877
O=[N+]([O-])c1ccc(O)c2ncccc12 [Nitroxoline] | 0.394 | 0.826 | 0.114 | 0.513
C=CCc1ccc(O)c(-c2ccc(O)c(CC=C)c2)c1 [Honokiol] | 0.52 | 0.373 | 0.598 | 0.552
CCCCCCCCCCCCCCCC(=O)O [Palmitic acid] | 0.74 | 0.867 | 0.32 | 0.701
COc1ccc2cccc(CCNC(C)=O)c2c1 [Agomelatine] | 0.691 | 0.891 | 0.674 | 0.856
CCCCCCCCCC(=O)NC1C(Oc2c3cc4cc2Oc2ccc(cc2Cl)C(OC2OC(CO)C(O)C(O)C2NC(C)=O)C2NC(=O)C(NC(=O)C4NC(=O)C4NC(=O)C(Cc5ccc(c(Cl)c5)O3)NC(=O)C(N)c3ccc(O)c(c3)Oc3cc(O)cc4c3)c3ccc(O)c(c3)-c3c(OC4OC(CO)C(O)C(O)C4O)cc(O)cc3C(C(=O)O)NC2=O)OC(CO)C(O)C1O (configuration not stated) [Teicoplanin] | 0.729 | 0.828 | 0.762 | 0.945
Cc1cnc(C(=O)NC2CCCCC/C=C\C3CC3(C(=O)NS(=O)(=O)C3CC3)NC(=O)C3CC(Oc4nc5ccccc5c5ccccc45)CN3C2=O)cn1 (configuration not stated) [Paritaprevir (ABT-450)] | 1.36 | 1.08 | 1.39 | 1.72
O=P([O-])(O)C(O)(Cc1cccnc1)P(=O)(O)O.[Na+] [Risedronate Sodium] | 0.935 | 0.981 | 0.879 | 0.847
CCNC(=O)CC[C@H](N)C(=O)O [L-Theanine] | 0.92 | 0.669 | 0.752 | 0.499
CC(=O)SC1CC2=CC(=O)CCC2(C)C2CCC3(C)C(CCC34CCC(=O)O4)C12 (configuration not stated) [Spironolactone] | 0.528 | 0.782 | 0.349 | 0.522
COC1=CC(=O)CC(C)C12Oc1c(Cl)c(OC)cc(OC)c1C2=O (configuration not stated) [Griseofulvin] | 0.715 | 0.859 | 1.16 | 2.6
Cc1ccccc1C(OCCN(C)C)c1ccccc1.Cl (configuration not stated) [Orphenadrine Hydrochloride] | 1.15 | 0.783 | 1.38 | 0.964
Clc1ccc(COC(Cn2ccnc2)c2ccc(Cl)cc2Cl)c(Cl)c1 (configuration not stated) [Miconazole] | 0.535 | 0.693 | 0.52 | 0.53
CCCC(CCC)C(=O)[O][Na] [Valproic acid sodium salt (Sodium valproate)] | 0.724 | 0.961 | 0.831 | 0.764
